In all, about 150,000 compounds went through this assay and about 540 (0.36%) showed an effect of 50% or more. This is one part of the list.

The test has as its system Plasmodium falciparum. Kind of test: Primary screen in NF54 nanoGlo assay, in single point, at 2uM, 72h; a lower Z score goes with more inhibition. As to conditions: timepoint 72 hour. In kind it is functional, Erythrocyte.
Consider `OCC1(c2ccccc2)CN(Cc2c(F)cccc2F)C1`, for which the “% Inhibition” value is reported as -2% and the Z score amounted to 0.28.
In the same order, the values of `CCc1noc(CN(C)Cc2cnn(-c3ccccc3)n2)n1` are 4% and -0.54.
In the same order, the values of `CC(C)(C)n1ncnc1CNC(=O)C(=O)Nc1cccc(Oc2ccc(C#N)cc2)c1` are 5% and -0.97.
With `COc1ccccc1CN1CC[C@H](CO)[C@H](NC(=O)c2ccccc2)C1`, the “% Inhibition” value amounted to 1% and the Z score is given as -0.18.
Regarding `CCOC1CC2(CCN(C(=O)c3ccccc3S(C)(=O)=O)C2)C1` (centres undefined), the “% Inhibition” value is on record as -44% and the Z score was found to be 5.21.
In the same order, the values of `COc1cc(C(=O)O)cc(C(=O)NC2CCN(Cc3cccs3)CC2)c1` are -11% and 1.08.
Consider `CCC1=Nc2ccccc2N=C(NC(=O)c2ccc(F)cc2)[C@H]1c1ccc(OC)c(OC)c1`, for which the “% Inhibition” value is on record as -11% and the Z score was determined as 1.75.
On the same counts, the results for `Cc1ccc(C(=O)C2CCN(C(=O)[C@H](C)NS(=O)(=O)c3ccc(Cl)cc3)CC2)c(C)c1` are -8% and 0.93.
On the same counts, the results for `CNC(=O)[C@@H]1C[C@H](NCc2ccccc2F)CN1CC(c1ccccc1)c1ccccc1` are 9% and -1.28.
On the same counts, the results for `CC(=O)NCC1CCN(c2cc(N)nc(N3CCOCC3)n2)CC1` are -1% and 0.11.
With `Cc1ocnc1-c1noc(C2CCCC(C(N)=O)C2)n1` (centres undefined), the “% Inhibition” value is reported as -5% and the Z score is recorded as 0.5.
For the compound `COc1ccc2c(c1)CCc1c-2n[nH]c1-c1ccc(C(=O)NC2Cc3ccccc3C2)cc1`, the “% Inhibition” value was 12% and the Z score was -1.59.
Consider `N#Cc1c(F)cccc1NCC(=O)NCC1CC1`, for which the “% Inhibition” value was 3% and the Z score was -0.54.
In the same order, the values of `c1nc(NCc2cc3n(n2)CCN(C2CCCCC2)C3)c2cc[nH]c2n1` are -2% and 0.47.
Turning to `Cc1ncc(Cn2cc(CCO)cn2)s1`, the “% Inhibition” value was -7% and the Z score stood at 0.84.
As to `CCNC(=O)N1CCC(NC(=O)N2CCCC(C)CC2)C1` (centres undefined), the “% Inhibition” value is -5% and the Z score turned out to be 0.67.
On the same counts, the results for `CC(C)C(=O)N1CC(N(Cc2ccccc2)C2CCOCC2)C1` are 3% and -0.51.
In the same order, the values of `Cc1ccc([C@@H]2CC(c3cccc(C)c3)=NN2C(=O)CN2CCCC2)cc1` are -2% and 0.31.
Turning to `O=C(NCCOCCn1ccnc1)c1ccncc1F`, the “% Inhibition” value turned out to be 1% and the Z score was -0.21.
Consider `CCC(C)C(=O)Nc1c(C(=O)OC)n(CC2CCCO2)c2ncc(NCc3ccccc3)cc12` (centres undefined), for which the “% Inhibition” value is -9% and the Z score is 1.
In the case of `C[C@H](Nc1ncc(Cl)cn1)C1(S(C)(=O)=O)CC1`, the “% Inhibition” value is given as -1% and the Z score was 0.22.
On the same counts, the results for `CN1CC[C@H](N2CC3(CCC2=O)CCN(C(=O)c2ncccc2O)CC3)C1` are -7% and 0.87.
Regarding `Cc1nsc(C(=O)N2CCCCC2)n1`, the “% Inhibition” value is reported as -20% and the Z score came out at 3.07.
In the same order, the values of `CCOc1nnc(CN2CCN(C(=O)OC(C)(C)C)CC23CCCCC3)s1` are -11% and 1.65.
On to `COCCC(=O)N1CCC(F)(C(=O)N2CCCC2)CC1`, for which the “% Inhibition” value was -9% and the Z score worked out at 1.13.
With `Cc1oc(-c2ccsc2)nc1CN1CCCC[C@@H]1CCO`, the “% Inhibition” value amounted to 2% and the Z score was -0.35.
For `CC(C)(C)c1nc(COc2ccc([C@H]3CCOC3)cc2)no1`, the “% Inhibition” value is reported as -13% and the Z score was determined as 1.44.
For `Cc1c(Cl)cccc1S(=O)(=O)N1CC(Oc2cc(C)n(C3CC3)c(=O)c2)C1`, the “% Inhibition” value is -28% and the Z score came to 3.15.
In the same order, the values of `CCN1C[C@@H](CN(C)Cc2nc(-c3ccccn3)no2)CC1=O` are -9% and 1.36.
Regarding `Cc1nn(-c2ccc(NC(=O)[C@@H]3CCC(=O)N3)cn2)c(C)c1Cl`, the “% Inhibition” value is listed as 40% and the Z score was -4.47.
On the same counts, the results for `Cc1cnccc1NCCNc1ncnc(C)c1C` are 6% and -0.88.
On the same counts, the results for `Cc1cc(C)cc(N2CCN(C(=O)C[C@]3(c4ccccc4C)CC(=O)N(C4CC4)C3=O)CC2=O)c1` are 1% and -0.18.
On to `O=C(Nc1cccc(NC(=O)C(F)(F)C(F)(F)OC(F)(F)F)n1)C(F)(F)C(F)(F)OC(F)(F)F`, for which the “% Inhibition” value was -1% and the Z score came out at 0.16.
On to `COc1ccnc(N2CCN(c3cccc4[nH]c(=O)[nH]c34)CC2)n1`, for which the “% Inhibition” value was determined as 3% and the Z score is reported as -0.49.
On the same counts, the results for `O=C(Nc1cc(F)cc(F)c1)C1CCN(c2cc(-c3cccc(F)c3)ncn2)CC1` are -16% and 2.59.
With `Cc1nc[nH]c1CN1CCN(Cc2ccoc2)[C@@H]2CS(=O)(=O)C[C@@H]21`, the “% Inhibition” value is -4% and the Z score was found to be 0.64.
On the same counts, the results for `CNC(=O)C1(N2CCC[C@H]2C(=O)N2CCCC2)COC1` are -3% and 0.41.
In the same order, the values of `Cc1nn(C)c2cc(NC(=O)N3CCC(C(C)(C)CN)CC3)ccc12` are -11% and 1.25.
For the compound `CNC1(c2nnnn2-c2cccc(C)c2)CCCC1`, the “% Inhibition” value was -9% and the Z score is listed as 1.28.
On the same counts, the results for `CCc1ccc([C@@H]2CN(C(=O)NCCc3ccnn3C)CCO2)cc1` are 2% and -0.22.
On the same counts, the results for `Cn1c(Cn2cccc(C(F)(F)F)c2=O)nc2ccccc21` are -5% and 0.78.
Turning to `CN(C)CC[C@H](NC(=O)c1ccc(NS(=O)(=O)C(F)(F)F)cc1)C(C)(C)C`, the “% Inhibition” value was -4% and the Z score came to 0.37.

Source of the values: ChEMBL document CHEMBL4888484, “Replenishing the malaria drug discovery pipeline: Screening and hit evaluation of the MMV Hit Generation Library 1 (HGL1) against asexual blood stage Plasmodium falciparum ,using a nano luciferase reporter read-out” (2022).
